Sequences with one replicate were seen in a single cluster, so their values are uncertain.
Each sequence was assayed on ATP (assay: switch fluorescence ratio, 500 uM ATP over buffer (Cy3 cluster intensity, sum of 5 cycles each) (fold (ratio)); higher = stronger signal-on switching upon ATP binding; sequences stand for … in TCGTCGGCAGCGTCAGATGTGTATAAGAGACAGTTTTTTTTTTTTTTTTTTTTTTTTT…TC). Settings: aptamer strand: ATP DNA aptamer (quencher-CACCTGGGGGAGTATTGCGGAGGAAGG + anchor), 100 nM annealed; ATP concentration: 500 uM; one replicate.
Procedure, shortened: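 Values give the fluorescence ratio for each switch-domain sequence, averaged from per-cluster ratios of summed target-cycle to summed buffer-cycle Cy3 intensity. The Cy3-labelled switching-strand clusters sat on a modified Illumina MiSeq flow-cell, were annealed to 100 nM quencher-labelled ATP aptamer, and were imaged in selection buffer, then after 15 min with 500 uM ATP at 22 °C. Five cycles ran with NaOH stripping and re-annealing between them, and clusters outside 100-1000 RFU were excluded.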
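Also: ATP exposure 15 min at 22 °C before imaging.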

Row | Sequence | switch fluorescence ratio
1 | GCCGTGGACG | 1
2 | AACAATTTT | 1.02
3 | TATACCTTTT | 0.983
4 | TTTGTCCCCA | 1.59
5 | GATTGCTTGC | 1.04
6 | GCTACTTTT | 0.995
7 | AGAGAATTGT | 0.976
8 | GATCTGGAGG | 1.03
9 | CGCGCCTGGG | 1.08
10 | ACTCGCTAAT | 1.52
11 | TGCAACTGGG | 1.07
12 | TCCTTGCGGA | 1.12
13 | AAAACAATGA | 0.982
14 | AGACGAGAAC | 1.09
15 | TCGGGCGCGC | 1.1
16 | ATGGTTCGCA | 0.974
17 | GTGGTTCGC | 1.04
18 | GCAAGAGCAG | 1.02
19 | AGTCTAACCG | 1.01
20 | TGGTCGCGCT | 1.01
21 | TTACGTTTAG | 1.07
22 | CATGCTTGCG | 0.975
23 | ATAGAACTCC | 1.02
24 | AAGGAAAGAG | 1.01
25 | AAGAGTAAAA | 1.01
26 | AGTTTGGTC | 0.951

Row | Sequence | switch fluorescence ratio
27 | GCTGGTCGTG | 0.994
28 | GTTAGTAATG | 0.995
29 | TTTGTGGTGC | 0.971
30 | TCGAGAGTCA | 0.976
31 | AAAACATTG | 0.979
32 | GCTGGGGCGC | 1
33 | ATGGAAATCG | 0.958
34 | TTTGAAGGCG | 0.991
35 | AGGCCATTTT | 1.04
36 | AGACCCATCC | 1.15
37 | CAAGGTCGGT | 0.967
38 | GGCGGCTCTG | 0.988
39 | TCGCGGTTG | 1.03
40 | GACCCGAGTT | 0.957
41 | CAGCGCCACA | 1.01
42 | TTTTCCGCCA | 1.97
43 | CATGCAGGGG | 1.11
44 | GGAATCTCGT | 0.993
45 | AAAGTTTTGC | 1.02
46 | TGGGACGAT | 0.995
47 | GGGGTACAGA | 1.13
48 | GTATATTTCC | 1.08
49 | GAACTTTGGG | 1.03
50 | CTCTTCAAAA | 2.4
51 | TTGTCCTGCT | 0.976
52 | AGGAGCTCCG | 1.09

Row | Sequence | switch fluorescence ratio
53 | AGTCGGTTTG | 0.965
54 | ACCGGGGGTG | 1.1
55 | CTACGATATG | 1.1
56 | TTCTTTACCG | 1.04
57 | GACTGGATTC | 1.02
58 | CTTACGATGT | 1.03
59 | TGCTACATTG | 0.989
60 | ATCCCGTGGT | 1.03
61 | TTGCCAGGGC | 0.974
62 | TTAGAGATCG | 1.04
63 | GTTTTACTC | 1.05
64 | TACTTCCATT | 1.02
65 | GCACAGCGAC | 1.13
66 | GAGCTCTTGA | 0.98
67 | GAAACAACTA | 0.988
68 | TTGTGACGGT | 0.976
69 | ATTAACCTTT | 1.04
70 | GAAACAAAAA | 0.98
71 | AAAGTAGAC | 0.991
72 | AAGACCGCTG | 0.972
73 | TGACGCACGT | 1.48
74 | ATTAACATCG | 1.06
75 | TTGTACGATG | 1
76 | TCGTGACATA | 0.983
77 | GGTCGGACAT | 0.921
78 | TTCCATAGTA | 0.988

Row | Sequence | switch fluorescence ratio
79 | TATCGTCACC | 1.04
80 | CAAGTTTATG | 0.999
81 | GGAGGAAAAA | 0.999
82 | CTATTTGTGC | 1
83 | CAATTAATCG | 1.01
84 | CGTATCGACT | 0.997
85 | AAGGTTTCCG | 1.09
86 | ATCCCCCGAA | 1.04
87 | GCTTACATT | 0.992
88 | GTAGGATATA | 1.01
89 | TCCAAGTGTA | 1.03
90 | TCGTCGGAGC | 1.02
91 | CGACTTCGGA | 1.07
92 | CATTGGGCAC | 1
93 | CTGGGGTCA | 0.988
94 | AGTGGTTCAC | 0.987
95 | CCGTCAACCG | 1.17
96 | AGAGAAAGGA | 1.04
97 | AGCAGTCTTT | 1.04
98 | GCGAAACTAT | 1.03
99 | TGATCCAATG | 1.02
100 | GGGGGACGAT | 1.03
101 | GCAGATCAAT | 1.05
102 | GCTTAGTGCC | 1.02
103 | TCCGGTTGGA | 1.04
104 | CCCAGCAGCA | 1.89

Row | Sequence | switch fluorescence ratio
105 | GACCAGGTAT | 1.18
106 | TATCAGGTA | 0.993
107 | GACTTGGTTC | 1
108 | CAATTCCCAA | 1.02
109 | TTAGGTGTAC | 1.96
110 | GAGCAAGAAC | 1.36
111 | CACATTAGCT | 1.03
112 | TGCATATCTA | 1.01
113 | AGGTATATAT | 0.974
114 | AGCCATTACA | 1.02
115 | GGGCCAATCA | 1.02
116 | TTTCATTAT | 0.988
117 | TCCCCCCTAA | 0.969
118 | ATTACGAAGC | 1.37
119 | TACGACTCTC | 1.06
120 | GATTTTCTAA | 0.995
121 | GGTTTATTAG | 1.02
122 | GAGCCGTTCA | 0.989
123 | ACCCTAGCTA | 1.11
124 | CATGAACGTG | 0.996
125 | AGTCAGGTCG | 1.04
126 | AAAGGGACA | 1.12
127 | ATTGCACACA | 1.08
128 | GCGTAATATA | 1.14
129 | TCAGCAACTG | 1.26
130 | ATGGTTTTCT | 0.983

Row | Sequence | switch fluorescence ratio
131 | TTTAGCATTA | 1.1
132 | GGGCTACTTT | 1.02
133 | TCCAAGGATT | 0.964
134 | TATAGTTTAA | 1
135 | TGTGGCGGCT | 0.992
136 | TGCTATTCCG | 1.02
137 | ATGCTAGACT | 0.949
138 | ATCTTCTAGG | 0.989
139 | ACCGCCACTT | 1.3
140 | GCGAGCGTTT | 0.99
141 | TCGATACAGC | 1.01
142 | CTGTATACAC | 1.07
143 | GATGAAAA | 1.01
144 | GGTACCTTTT | 0.99
145 | TAACCGGTGA | 1
146 | AACACGGGGA | 1.03
147 | TATGCATGCG | 1
148 | CGTCACCCCC | 2.31
149 | GTCCTAATAA | 0.988
150 | TTAAATATCT | 1.03
151 | ATGCAGTACA | 1.05
152 | TCGATGTTAG | 0.943
153 | CATCTGTATG | 1.01
154 | ATTGAATTTC | 1.01
155 | TATCTGTTTT | 1.03
156 | TAAGATCAGG | 0.992

Row | Sequence | switch fluorescence ratio
157 | TTCCGAAGGG | 0.98
158 | ATGCGCATTG | 0.985
159 | TAGCTTGCCA | 1.04
160 | TTGTTCTCAG | 0.941
161 | TTATGTCATT | 1.02
162 | TGATTGACTT | 1.06
163 | CAGATTTCTT | 1.02
164 | GAGGTTAACG | 1.04
165 | ATGGGTTTTA | 1.03
166 | CACCGGTTGC | 1.32
167 | AGGGAGTTTA | 1.02
168 | ACCACTTATT | 1.05
169 | ATAGGAATTC | 1.02
170 | GGGGCTAAGT | 0.971
171 | ATTACTAGTA | 1.02
172 | CCAAATACT | 2.18
173 | TTCATAACTC | 1.05
174 | GTAAATAGAC | 1.01
175 | TTCGAGCCAT | 2.36
176 | GAGGGGCAAC | 1.03
177 | GGGGTAACA | 1.04
178 | CGCCTTGGTG | 1.52
179 | GATGTGCATA | 1.03
180 | CGTGAGTGAG | 0.988
181 | TGATCGTCA | 1.01
182 | TAAGCTACTC | 1.51

Row | Sequence | switch fluorescence ratio
183 | AGCAGAGGTT | 1.03
184 | CTCAACGTGT | 1.05
185 | TCAATGCGCG | 1.08
186 | GTGTCGGGGC | 1.02
187 | ACCGTCTCAA | 1.05
188 | ATAATCGTGA | 0.969
189 | TAGTGACTC | 1.09
190 | GGCCCGAAGG | 0.962
191 | GAAATTAATG | 1.08
192 | CGCTCTAAGG | 1.05
193 | ATTGACGTTA | 1.05
194 | CGTGAAACCT | 1.01
195 | TGCAGTCGTA | 1.04
196 | TCTGGAGTAC | 0.99
197 | ACTTGAGGC | 1.05
198 | GATAGATCGC | 0.955
199 | ACAAGGAGGG | 0.978
200 | GACGTCCTCA | 1
201 | TAACCGTCTT | 1.05
